# Data reported in paper PMC6919601, “Identification of Plasmodium dipeptidyl aminopeptidase allosteric inhibitors by high throughput screening” (PLoS ONE, 2019).
# Screen size: about 110,000 compounds; about 230 (0.21%) showed an effect of 50% or more. This is one part of the list.
# Target: DPAP1 (Plasmodium falciparum, UniProt Q8IIJ9)
# Assay: primary screen, percent inhibition; read by cleavage of a fluorogenic dipeptide substrate; higher = more effect of the substance
# Parameters: species or system P. falciparum D10 trophozoite lysates; single well
# 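Note: 30 min substrate incubation versus DMSO and 10 µM JCP410 controls.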
# DPAP1, sequence (Q8IIJ9 whole entry, looked up): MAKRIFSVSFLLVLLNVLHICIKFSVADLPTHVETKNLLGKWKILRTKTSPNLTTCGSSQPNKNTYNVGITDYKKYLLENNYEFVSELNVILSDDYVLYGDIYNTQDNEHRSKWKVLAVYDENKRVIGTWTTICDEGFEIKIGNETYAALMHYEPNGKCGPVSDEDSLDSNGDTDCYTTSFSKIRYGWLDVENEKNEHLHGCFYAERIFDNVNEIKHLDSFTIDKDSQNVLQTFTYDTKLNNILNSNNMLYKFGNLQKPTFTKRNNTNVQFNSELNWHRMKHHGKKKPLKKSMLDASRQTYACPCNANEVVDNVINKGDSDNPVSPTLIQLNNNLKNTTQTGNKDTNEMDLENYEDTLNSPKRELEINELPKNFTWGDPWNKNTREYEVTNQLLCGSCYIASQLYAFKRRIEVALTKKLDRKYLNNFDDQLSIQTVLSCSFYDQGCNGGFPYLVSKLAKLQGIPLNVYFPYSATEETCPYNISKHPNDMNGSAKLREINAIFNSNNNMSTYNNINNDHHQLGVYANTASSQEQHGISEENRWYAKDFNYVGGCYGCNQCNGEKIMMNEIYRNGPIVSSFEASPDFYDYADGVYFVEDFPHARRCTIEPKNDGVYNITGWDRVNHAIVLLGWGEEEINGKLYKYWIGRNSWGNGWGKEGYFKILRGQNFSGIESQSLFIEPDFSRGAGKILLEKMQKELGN
row,SMILES,% Inhibition @ 10 uM [%]
1,CCCN1C(=O)c2cc(C(=O)NC3CCCCCC3)ccc2C1O (stereo not shown),-0.942
2,CCCCN(CC)CCNC(=O)c1cc2c(O)nc3ccc(C)cc3c2s1,10.2
3,Cn1c2c(s/c1=N\C(=O)c1ccco1)CCc1ccccc1-2,3.49
4,O=C(Nc1sc2c(c1C(=O)NCC1CCCO1)CCC2)c1cccs1 (stereo not shown),-2.12
5,NC(=O)C1CCN(C(=O)CCCn2sc3ccccc3c2=O)CC1,0.39
6,CCc1c(-c2ccccc2)n(CCc2ccc(OC)c(OC)c2)c2nc3c(c(=O)n(C)c(=O)n3C)n12,-4.59
7,OC(CN1CCC(O)(c2ccc(Cl)cc2)CC1)c1ccc(F)cc1 (stereo not shown),-2.76
8,c1coc(CN2CCc3ccccc3C2)c1,6.18
9,COc1ccc(S(=O)(=O)N2CCOCC2)cc1-c1nnc2c3ccccc3c(C)nn12,-4.78
10,O=C1c2cccc(Cl)c2C(=O)N1c1ccccn1,-12.2
11,O=C(COc1ccc(Cl)cc1Cl)NCc1ccc(Cl)cc1,0.52
12,COc1ccc(/C=C2N=C(/C=C/c3ccc(Cl)cc3)OC/2=O)c(OC)c1,-6.82
13,COc1ccc(-n2nc3c(N4CCCC(C(=O)NCCN(C)C)C4)nnc(C)c3c2C)cc1 (stereo not shown),3.91
14,CCOc1cc(-c2cc(=O)c3ccccc3o2)ccc1O,1.81
15,Cc1ccc(-n2ncc3c(O)nc(SCC(=O)N4CCC(C)CC4)nc32)cc1,-3.35
16,CC(C)(C)c1cc(Br)ccc1OCC(=O)Nc1ccc(S(N)(=O)=O)cc1,1.87
17,O=C(NCCCO)C1CC=CCC1C(=O)Nc1cccc2ccccc12 (stereo not shown),-1.74
18,COc1ccc(OC)c(C2NC(C(=O)O)Cc3c2[nH]c2ccccc32)c1 (stereo not shown),1.45
19,CC(Oc1ccccc1)C(=O)Nc1nc2nc(-c3ccccc3)cc(O)n2n1 (stereo not shown),8.16
20,O=C(c1ccc(F)cc1)c1oc2ccccc2c1NC(=O)C1COc2ccccc2O1 (stereo not shown),0.414
21,C=CCn1c(Cc2ccccc2)nc2c(cnn2-c2ccccc2)c1=O,1.88
22,CCn1cc(C(=O)NCc2ccccc2)cn1,3.9

row,SMILES,% Inhibition @ 10 uM [%]
1,CN(C)c1ccc(NC(=O)c2nn(C)cc2Br)cc1,1.34
2,O=C(COc1ccccc1Cl)Nc1ccc(S(=O)(=O)N2CCOCC2)cc1,0.889
3,O=C(NCC1CCCO1)c1ccc(Br)o1 (stereo not shown),-3.63
4,CC(CC(C)C(=O)Nc1ccccc1C(C)(C)C)C(=O)O (stereo not shown),-4.49
5,Cc1ccc2[nH]c(SCC(=O)Nc3ccccc3C)nc2c1,-1.28
6,O=S(=O)(c1ccccc1)c1ccccc1C(O)(c1ccccc1)c1ccccc1,-0.693
7,O=C(Nc1nc2ccc(Cl)cc2s1)C1CCCN1S(=O)(=O)c1cccc2nsnc12 (stereo not shown),-2.25
8,COC(=O)c1ccccc1NC(=O)C1CCN(S(C)(=O)=O)CC1,3.24
9,COc1ccc(-c2csc(/C(C#N)=C/c3ccc(Cl)cc3)n2)cc1,7.59
10,CC1(C)CC(=O)C2=C(C1)NC(=O)CC2c1cccc(C(F)(F)F)c1 (stereo not shown),-3.21
11,O=C(NCc1ccc2c(c1)OCO2)c1nc(SCc2ccc(F)cc2)ncc1Cl,-8.39
12,Cc1nn(-c2ccccc2)c2c1C(c1ccc(Cl)cc1)SCC(=O)N2 (stereo not shown),-10.1
13,O=C(NCc1ccco1)c1ccc(C(=O)NCc2ccco2)cc1,-1.43
14,O=C(/C=C/c1ccccc1Cl)NCc1nc2ccccc2[nH]1,11.6
15,Cc1ccc(CN(CC(=O)Nc2ccccc2Cl)S(=O)(=O)c2ccccc2)cc1,0.163
16,O=C(O)c1cc(-c2ccccc2)n(-c2ccccc2Cl)n1,-11.3
17,COc1ccc(Cl)cc1C(=O)Nc1c2c(nn1-c1cccc(C)c1C)CS(=O)(=O)C2,5.21
18,Cc1ccc(C(=O)N2CCN(c3ccc(F)cc3)CC2)o1,-1.42
19,CC1CCN(c2ccc3nnc(CCC(=O)N4CCCC4)n3n2)CC1,-1.68
20,Cc1nnc2c(N3CCCC3)nc3ccccc3n12,-0.788
21,C=C(C)Cn1c(CCNC(=O)c2ccccc2)nc2ccccc21,-2.74
22,CCc1ccc(NC(=O)c2nn(C)c(C)c2Br)cc1,7.35

row,SMILES,% Inhibition @ 10 uM [%]
1,Nc1ccc(Cl)c(C(=O)Nc2ccccc2C(=O)O)c1,-4.72
2,COc1ccc(/C=C2\C(=N)N3N=C(N4CCC(C)CC4)SC3=NC2=O)cc1OC,-3.44
3,CS/C(=C\C(=O)c1ccco1)C(C)C(=O)c1ccco1 (stereo not shown),0.583
4,COc1cc(/C=C2/C(=N)N3C(SCC(C)C)=NSC3=NC2=O)ccc1OCC(=O)O,6.2
5,CCOc1ccc(-c2noc(-c3ccco3)n2)cc1OCC,-2.92
6,CCN(CC)Cc1c(O)ccc2oc(C)c(C(=O)NC3CCCC3)c12,0.276
7,Cc1nc2ccccc2n1C(=O)c1cccs1,-3.48
8,Cc1cc(C)c(S(=O)(=O)NCc2nc(N)n(S(=O)(=O)c3c(C)cc(C)cc3C)n2)c(C)c1,-0.659
9,Cc1nc2cc(NC(=O)NC3CC3)ccc2n1C,-13
10,O=C(NC1CCCCC1)C1c2ccccc2C(=O)N1Cc1ccc2c(c1)OCO2 (stereo not shown),1.16
11,COc1ccccc1Cn1c(O)nc2cccnc21,-2.83
12,O=C(NCc1cccnc1)Nc1ccc(NC(=O)NCc2cccnc2)cc1,3.53
13,CC(CNC(=O)CCCn1c2ccccc2c2cnnc(O)c21)c1ccccc1 (stereo not shown),-5.63
14,C/C(=C(\NC(=O)c1ccccc1)C(=O)O)c1ccc(C)cc1,-2.84
15,Cn1ncc(C(=O)N2CCN(Cc3ccccc3)CC2)c1C1CCN(C(=O)OC(C)(C)C)CC1,-7.36
16,Cc1ccc(CS(=O)Cc2ccc(C(=O)NC3CCCc4ccccc43)o2)cc1 (stereo not shown),-3.53
17,COc1cc(-c2cc(-c3ccccc3)nc(SCC(=O)O)c2C#N)cc(OC)c1OC,17
18,CCCN(C(=O)Cc1ccccc1)c1nc(-c2ccccc2)cs1,-0.704
19,CCOc1ccccc1N1C(=O)c2ccc(C(=O)NCC(C)C)cc2C1=O,-4.7
20,COc1ccccc1CNc1nc2c(S(=O)(=O)c3cc(C)ccc3C)nnn2c2ccsc12,-4.34
